Assay results from publication PMC4242493.
This is one part of the list. The list includes weakly bound sequences.

target: MaxL homodimer (UniProt P61244); test: universal protein-binding microarray (PBM); conditions: PBS-based mixture, 10 nM His-tagged protein dimer, 2% milk, 200 ng/uL BSA, 50 ng/uL salmon testes DNA, 0.02% TX-100; detection with Alexa 488 anti-His …; high values mean tight binding; most listed sequences are background and not binding sites; double strand, one strand shown
UniProt P61244, sequence (P61244 whole entry): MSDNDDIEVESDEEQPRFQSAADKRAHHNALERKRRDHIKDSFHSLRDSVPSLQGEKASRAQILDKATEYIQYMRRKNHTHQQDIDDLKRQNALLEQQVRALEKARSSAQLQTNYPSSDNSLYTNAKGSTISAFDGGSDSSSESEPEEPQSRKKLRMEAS

Sequence	binding signal (normalized occupancy)
GTCGCAAA	0.0719
GACGCAAC	0.0699
CATAAGTC	0.0755
CGGTACAG	0.076
CATCGCAC	0.0759
CGTACTAA	0.0739
TGAGGACA	0.0814
AGCTTCAC	0.0698
GAACTAAC	0.0734
TAATTAAA	0.0737
CACAGGAG	0.0742
GCAGGCTA	0.0693
CTACGTCC	0.0761
CCCATGGG	0.0962
AGGTTGTA	0.0784
GTGTGGGA	0.0899
GACCCTAA	0.0767
CTACACCC	0.0821
AACGCGTG	0.123
CTCTCACC	0.0788
AGGTACGC	0.0714
CTCAAATA	0.0761
GAACACCC	0.0745
AGCACGCT	0.104
GTAGCATA	0.0838

Sequence	binding signal (normalized occupancy)
ACAATTAA	0.0764
CATTGGGC	0.0743
CCGAGAAG	0.0697
CTAGGCGC	0.0714
GATCAGCA	0.0754
GAGTGTTA	0.0743
GATCTTAA	0.0825
ATGTGAGA	0.0969
CGAGTCCC	0.0698
ACGACCGG	0.0708
AAAGGGTG	0.0758
ACTCGCGC	0.0737
AGCTTTTA	0.0712
GCGCACCC	0.0755
CGCTATTC	0.0779
TGGGTTAA	0.0771
AACTCGAC	0.0723
CCCGCCCC	0.0823
AGTGAGAT	0.0784
AAGTGCGG	0.072
ATACCTTA	0.0767
AGGACCCA	0.0706
CGTGTAAG	0.0872
AATGATGT	0.083
ATGCGTCA	0.0864

Sequence	binding signal (normalized occupancy)
GCCATTCA	0.0744
CCAAGGAC	0.0696
CAAGGGAC	0.0675
CGCACTAA	0.0689
CCGTTAGG	0.0694
CTGGGCGA	0.0713
AATGTGAT	0.101
GACTCTGA	0.0713
CGTCCCTC	0.0698
ACTCACTC	0.0763
AAAAGAAT	0.0743
ACGGCCAA	0.0702
GCTGTCTA	0.0732
CTTCGGTC	0.0659
GGGGAATA	0.0817
ACTAGGTG	0.0768
AGGGACAG	0.0738
ACAAACAA	0.0739
AGACTAAA	0.071
ATCTTAAT	0.0786
ACGAACCA	0.0719
CTGTACAG	0.0706
ACCGCGCA	0.0785
ACCACAGC	0.0746
ACCCCCCG	0.0817

Sequence	binding signal (normalized occupancy)
ACCCGACG	0.0712
ATTTGTCA	0.0789
ACACAAAA	0.0728
TAATACTA	0.0779
CAGACCAA	0.0706
AGAAGCGA	0.0704
ATAGTGGC	0.0793
CGGGATGC	0.0773
ATTGGCGC	0.0745
TCCGGAGA	0.0755
AACGTCTC	0.0749
AGGCCCGG	0.064
ACTGGGAT	0.0742
CAGCATGG	0.13
GGGGGAAC	0.0787
ACCAGGCT	0.0767
ACCTCGTG	0.156
AAAAGGGC	0.0656
CACCACTG	0.0775
AGTTCCGG	0.066
ATCCATCA	0.0851
ACGAGGAC	0.0874
AGAAAACG	0.0753
GCCACTCA	0.0767
CGAACCAG	0.0693

Sequence	binding signal (normalized occupancy)
GCCAACAA	0.0774
GCGGGAAA	0.0679
GCTCCTGA	0.0681
AGGTGCCC	0.0727
ACGAAATC	0.0781
AATTAATC	0.0741
AGCAACGG	0.0727
AACGCCAA	0.0782
ATTCATCC	0.0779
CACCAACG	0.0773
AACACGTA	0.083
AACTGTAG	0.0714
ATTGAAAA	0.0765
ACGTACTC	0.077
CGGTTACA	0.0735
AGGGCTTA	0.0711
ACTGCAGC	0.0737
ACGAGTAT	0.0802
TCCGCAGA	0.0666
CGCGTACC	0.0717
GGGCGCGA	0.07
GCATATGC	0.0998
CTTCAGGA	0.0691
CTTATGAA	0.0827
CGACAGTC	0.0692

Sequence	binding signal (normalized occupancy)
GCAGCAAC	0.0702
ACGAACTG	0.0714
CAACAGAG	0.0679
GCAGTAGA	0.0711
CACGGTCC	0.072
AACCGCCC	0.0689
CAACTCAA	0.0746
CGACTCAC	0.0786
CGCGCGTC	0.075
ATCGAAAA	0.0724
CGGATTGC	0.0705
CCATGGTA	0.0851
GAGGACCA	0.0781
CTAGCTCA	0.0759
CTAGGCGA	0.07
TGCGCTAA	0.08
CCGGATTC	0.0748
CGTTCCCA	0.0785
AATGTATG	0.0889
AGCAATGA	0.0743
CGCCTCCG	0.0688
AAACCTCC	0.0721
CCAGCGCG	0.0739
TCAAGGCA	0.0748
GCGTTCCC	0.0725

Sequence	binding signal (normalized occupancy)
GATTGCAA	0.0727
AAAGGAAG	0.0688
ACGACTAT	0.0774
TGTACCAA	0.0764
ATAGCTTG	0.0718
TACTCTAA	0.0763
AAATGCTT	0.0744
CCACTTCC	0.0703
ACCCAAGA	0.0765
GAATTGCC	0.0732
GATCTACC	0.0732
GCTTCGCA	0.066
GGGGCAAA	0.074
GAAACGTC	0.0712
CCTTGTAC	0.0764
TCCTTTAA	0.0734
CTGGATTC	0.0721
CAGAGAAA	0.0739
ACCGGGAT	0.0741
ACGGAAAG	0.0731
AATTTTGG	0.0737
CCGCTGAG	0.0657
CGAAGTAC	0.0733
AACCTCTA	0.0738
CAGAGGCG	0.071

Sequence	binding signal (normalized occupancy)
ATAGGGTA	0.0808
AGCGCCAG	0.0652
CCATGGAA	0.0854
ATCTAAAA	0.0753
AAGCGACT	0.0719
ATTGACTA	0.0737
GCGAAGCC	0.0641
ATGGCCTG	0.0801
GACGATTA	0.0804
AGGATGGC	0.0769
ATCTTAGA	0.0729
ACACTTCG	0.0758
CTCCCGTA	0.0741
ATATAGTA	0.0877
GGGTGACC	0.0751
CTGCGGAC	0.0697
CCATCTGC	0.0812
AAGCCCCG	0.072
ATTGCCGA	0.0726
TTCCAAAA	0.0781
GTGTAAAA	0.0873
ACTACTTA	0.0707
ACTCCAGC	0.072
ACTATTTC	0.0778
ACTGATCT	0.0763

Sequence	binding signal (normalized occupancy)
CGTTCTCC	0.0832
ACTAGACC	0.0763
AGGAGCAG	0.0707
ATTAGCGG	0.0719
AGTTAGAC	0.0693
ACCAGGCC	0.0726
AAACAGAG	0.0695
TATGCAGA	0.0804
AGTTGGCC	0.0702
AGATCGGA	0.0756
CATGAATC	0.082
ACGTATTA	0.0818
CCACATAC	0.0822
AAGGTGTA	0.0773
AGATTATA	0.0768
TCACAGAA	0.0717
AGTACTCC	0.0715
CAGCCAAC	0.0804
CCGCGAAA	0.0734
